Reference: patent US20200002421A1, “ANTI-B7-H3 ANTIBODIES AND ANTIBODY DRUG CONJUGATES” (AbbVie Inc., priority 2016, published 2020)
Substitutions are numbered along the chain they refer to.

B1: huAb3v2.5-CZ (conjugate)
heavy: EVQLVQSGAEVKKPGSSVKVSCKASGYTFSSYWMHWVRQAPGQGLEWIGLIHPESGSTNYNEMFKNRATLTVDRSTSTAYMELSSLRSEDTAVYYCAGGGRLYFDYWGQGTTVTVSSASTKGPSVFPLAPSSKSTSGGTAALGCLVKDYFPEPVTVSWNSGALTSGVHTFPAVLQSSGLYSLSSVVTVPSSSLGTQTYICNVNHKPSNTKVDKKV[letters of human IgG1 Fc with changes omitted]
light: DIVMTQSPLSLPVTPGEPASISCRSSQSLVHSNRDTYLRWYLQKPGQSPQLLIYKVSNRFSGVPDRFSGSGSGTDFTLKISRVEAEDVGVYYCSQSTHVPYTFGGGTKVEIKRTVAAPSVFIFPPSDEQLKSGTASVVCLLNNFYPREAKVQWKVDNALQSGNSQESVTEQDSKDSTYSLSSTLTLSKADYEKHKVYACEVTHQGLSSPVTKSFNRGEC
B2: huAb3v2.6-CZ (conjugate)
heavy: EVQLVQSGAEVKKPGSSVKVSCKASGYTFSSYWMHWVRQAPGQGLEWIGLIHPESGSTNYNEMFKNRATLTVDRSTSTAYMELSSLRSEDTAVYYCAGGGRLYFDYWGQGTTVTVSSASTKGPSVFPLAPSSKSTSGGTAALGCLVKDYFPEPVTVSWNSGALTSGVHTFPAVLQSSGLYSLSSVVTVPSSSLGTQTYICNVNHKPSNTKVDKKV[letters of human IgG1 Fc with changes omitted]
light: B1 light with R34Q
B3: huAb13v1-TV (conjugate)
heavy: EVQLQESGPGLVKPSETLSLTCAVTGYSITSGYSWHWIRQFPGNGLEWMGYIHSSGSTNYNPSLKSRISISRDTSKNQFFLKLSSVTAADTAVYYCAGYDDYFEYWGQGTTVTVSSASTKGPSVFPLAPSSKSTSGGTAALGCLVKDYFPEPVTVSWNSGALTSGVHTFPAVLQSSGLYSLSSVVTVPSSSLGTQTYICNVNHKPSNTKVDKKV[letters of human IgG1 Fc with changes omitted]
light: DIQMTQSPSSLSASVGDRVTITCKASQNVGFNVAWYQQKPGKSPKALIYSASYRYSGVPSRFSGSGSGTDFTLTISSLQPEDFAEYFCQQYNWYPFTFGQGTKLEIKRTVAAPSVFIFPPSDEQLKSGTASVVCLLNNFYPREAKVQWKVDNALQSGNSQESVTEQDSKDSTYSLSSTLTLSKADYEKHKVYACEVTHQGLSSPVTKSFNRGEC
B4: huAb13v1-AAA (conjugate)
heavy: EVQLQESGPGLVKPSETLSLTCAVTGYSITSGYSWHWIRQFPGNGLEWMGYIHSSGSTNYNPSLKSRISISRDTSKNQFFLKLSSVTAADTAVYYCAGYDDYFEYWGQGTTVTVSSASTKGPSVFPLAPSSKSTSGGTAALGCLVKDYFPEPVTVSWNSGALTSGVHTFPAVLQSSGLYSLSSVVTVPSSSLGTQTYICNVNHKPSNTKVDKKV[letters of human IgG1 Fc with changes omitted]
light: B3 light
B5: huAb13v1-AAD (conjugate)
heavy: EVQLQESGPGLVKPSETLSLTCAVTGYSITSGYSWHWIRQFPGNGLEWMGYIHSSGSTNYNPSLKSRISISRDTSKNQFFLKLSSVTAADTAVYYCAGYDDYFEYWGQGTTVTVSSASTKGPSVFPLAPSSKSTSGGTAALGCLVKDYFPEPVTVSWNSGALTSGVHTFPAVLQSSGLYSLSSVVTVPSSSLGTQTYICNVNHKPSNTKVDKKV[letters of human IgG1 Fc with changes omitted]
light: B3 light
modifications: non-natural residues
B6: huAb3v2.5-TX (conjugate)
heavy: EVQLVQSGAEVKKPGSSVKVSCKASGYTFSSYWMHWVRQAPGQGLEWIGLIHPESGSTNYNEMFKNRATLTVDRSTSTAYMELSSLRSEDTAVYYCAGGGRLYFDYWGQGTTVTVSSASTKGPSVFPLAPSSKSTSGGTAALGCLVKDYFPEPVTVSWNSGALTSGVHTFPAVLQSSGLYSLSSVVTVPSSSLGTQTYICNVNHKPSNTKVDKKV[letters of human IgG1 Fc with changes omitted]
light: B1 light
B7: huAb3v2.5-TV (conjugate)
heavy: EVQLVQSGAEVKKPGSSVKVSCKASGYTFSSYWMHWVRQAPGQGLEWIGLIHPESGSTNYNEMFKNRATLTVDRSTSTAYMELSSLRSEDTAVYYCAGGGRLYFDYWGQGTTVTVSSASTKGPSVFPLAPSSKSTSGGTAALGCLVKDYFPEPVTVSWNSGALTSGVHTFPAVLQSSGLYSLSSVVTVPSSSLGTQTYICNVNHKPSNTKVDKKV[letters of human IgG1 Fc with changes omitted]
light: B1 light
B8: huAb3v2.5-YY (conjugate)
heavy: EVQLVQSGAEVKKPGSSVKVSCKASGYTFSSYWMHWVRQAPGQGLEWIGLIHPESGSTNYNEMFKNRATLTVDRSTSTAYMELSSLRSEDTAVYYCAGGGRLYFDYWGQGTTVTVSSASTKGPSVFPLAPSSKSTSGGTAALGCLVKDYFPEPVTVSWNSGALTSGVHTFPAVLQSSGLYSLSSVVTVPSSSLGTQTYICNVNHKPSNTKVDKKV[letters of human IgG1 Fc with changes omitted]
light: B1 light
B9: huAb3v2.5-AAA (conjugate)
heavy: EVQLVQSGAEVKKPGSSVKVSCKASGYTFSSYWMHWVRQAPGQGLEWIGLIHPESGSTNYNEMFKNRATLTVDRSTSTAYMELSSLRSEDTAVYYCAGGGRLYFDYWGQGTTVTVSSASTKGPSVFPLAPSSKSTSGGTAALGCLVKDYFPEPVTVSWNSGALTSGVHTFPAVLQSSGLYSLSSVVTVPSSSLGTQTYICNVNHKPSNTKVDKKV[letters of human IgG1 Fc with changes omitted]
light: B1 light
B10: huAb3v2.5-AAD (conjugate)
heavy: EVQLVQSGAEVKKPGSSVKVSCKASGYTFSSYWMHWVRQAPGQGLEWIGLIHPESGSTNYNEMFKNRATLTVDRSTSTAYMELSSLRSEDTAVYYCAGGGRLYFDYWGQGTTVTVSSASTKGPSVFPLAPSSKSTSGGTAALGCLVKDYFPEPVTVSWNSGALTSGVHTFPAVLQSSGLYSLSSVVTVPSSSLGTQTYICNVNHKPSNTKVDKKV[letters of human IgG1 Fc with changes omitted]
light: B1 light
modifications: non-natural residues
B11: huAb3v2.5-ZT (conjugate)
heavy: EVQLVQSGAEVKKPGSSVKVSCKASGYTFSSYWMHWVRQAPGQGLEWIGLIHPESGSTNYNEMFKNRATLTVDRSTSTAYMELSSLRSEDTAVYYCAGGGRLYFDYWGQGTTVTVSSASTKGPSVFPLAPSSKSTSGGTAALGCLVKDYFPEPVTVSWNSGALTSGVHTFPAVLQSSGLYSLSSVVTVPSSSLGTQTYICNVNHKPSNTKVDKKV[letters of human IgG1 Fc with changes omitted]
light: B1 light
B12: huAb3v2.6-TX (conjugate)
heavy: EVQLVQSGAEVKKPGSSVKVSCKASGYTFSSYWMHWVRQAPGQGLEWIGLIHPESGSTNYNEMFKNRATLTVDRSTSTAYMELSSLRSEDTAVYYCAGGGRLYFDYWGQGTTVTVSSASTKGPSVFPLAPSSKSTSGGTAALGCLVKDYFPEPVTVSWNSGALTSGVHTFPAVLQSSGLYSLSSVVTVPSSSLGTQTYICNVNHKPSNTKVDKKV[letters of human IgG1 Fc with changes omitted]
light: B1 light with R34Q
B13: huAb3v2.6-TV (conjugate)
heavy: EVQLVQSGAEVKKPGSSVKVSCKASGYTFSSYWMHWVRQAPGQGLEWIGLIHPESGSTNYNEMFKNRATLTVDRSTSTAYMELSSLRSEDTAVYYCAGGGRLYFDYWGQGTTVTVSSASTKGPSVFPLAPSSKSTSGGTAALGCLVKDYFPEPVTVSWNSGALTSGVHTFPAVLQSSGLYSLSSVVTVPSSSLGTQTYICNVNHKPSNTKVDKKV[letters of human IgG1 Fc with changes omitted]
light: B1 light with R34Q
B14: huAb3v2.6-YY (conjugate)
heavy: EVQLVQSGAEVKKPGSSVKVSCKASGYTFSSYWMHWVRQAPGQGLEWIGLIHPESGSTNYNEMFKNRATLTVDRSTSTAYMELSSLRSEDTAVYYCAGGGRLYFDYWGQGTTVTVSSASTKGPSVFPLAPSSKSTSGGTAALGCLVKDYFPEPVTVSWNSGALTSGVHTFPAVLQSSGLYSLSSVVTVPSSSLGTQTYICNVNHKPSNTKVDKKV[letters of human IgG1 Fc with changes omitted]
light: B1 light with R34Q
B15: huAb3v2.6-AAD (conjugate)
heavy: EVQLVQSGAEVKKPGSSVKVSCKASGYTFSSYWMHWVRQAPGQGLEWIGLIHPESGSTNYNEMFKNRATLTVDRSTSTAYMELSSLRSEDTAVYYCAGGGRLYFDYWGQGTTVTVSSASTKGPSVFPLAPSSKSTSGGTAALGCLVKDYFPEPVTVSWNSGALTSGVHTFPAVLQSSGLYSLSSVVTVPSSSLGTQTYICNVNHKPSNTKVDKKV[letters of human IgG1 Fc with changes omitted]
light: B1 light with R34Q
modifications: non-natural residues
B16: huAb3v2.6-ZZ (conjugate)
heavy: EVQLVQSGAEVKKPGSSVKVSCKASGYTFSSYWMHWVRQAPGQGLEWIGLIHPESGSTNYNEMFKNRATLTVDRSTSTAYMELSSLRSEDTAVYYCAGGGRLYFDYWGQGTTVTVSSASTKGPSVFPLAPSSKSTSGGTAALGCLVKDYFPEPVTVSWNSGALTSGVHTFPAVLQSSGLYSLSSVVTVPSSSLGTQTYICNVNHKPSNTKVDKKV[letters of human IgG1 Fc with changes omitted]
light: B1 light with R34Q
B17: huAb13v1-CZ (conjugate)
heavy: EVQLQESGPGLVKPSETLSLTCAVTGYSITSGYSWHWIRQFPGNGLEWMGYIHSSGSTNYNPSLKSRISISRDTSKNQFFLKLSSVTAADTAVYYCAGYDDYFEYWGQGTTVTVSSASTKGPSVFPLAPSSKSTSGGTAALGCLVKDYFPEPVTVSWNSGALTSGVHTFPAVLQSSGLYSLSSVVTVPSSSLGTQTYICNVNHKPSNTKVDKKV[letters of human IgG1 Fc with changes omitted]
light: B3 light
B18: huAb13v1-TX (conjugate)
heavy: EVQLQESGPGLVKPSETLSLTCAVTGYSITSGYSWHWIRQFPGNGLEWMGYIHSSGSTNYNPSLKSRISISRDTSKNQFFLKLSSVTAADTAVYYCAGYDDYFEYWGQGTTVTVSSASTKGPSVFPLAPSSKSTSGGTAALGCLVKDYFPEPVTVSWNSGALTSGVHTFPAVLQSSGLYSLSSVVTVPSSSLGTQTYICNVNHKPSNTKVDKKV[letters of human IgG1 Fc with changes omitted]
light: B3 light

Test system: NCI-H847 cells
Assay: In vitro cell viability assay (CellTiter-Glo), NCI-H847
Assay type: cell-based, human
Conditions: ADC conjugated to Bcl-xLi synthon CZ, read-out: Cytotoxicity (H847 Cell line IC50)
Method: The tumor cell lines HCC38 (breast cancer), NCI-H1650 (NSCLC) and NCI-H847 (small cell lung cancer cell line) were obtained from American Type Culture Collection (ATCC). Cells were grown in 96-well culture plates using recommended growth media overnight at a density of 5×10^3 (HCC38) or 20×10^3 (NCI-H847) or 40×10^3 (NCI-H1650) per well. The following day, treatments were added in fresh media to triplicate wells. Cellular viability was determined 5 days later using the CellTiter-Glo Luminescent Cell Viability Assay kit (Promega), as directed in the manufacturer's protocol. Cell viability was assessed as percentage of control untreated cells.

Row | Molecule | IC50 [nM]
1 | B1 | 1.57
2 | B2 | 1.7

Test system: not listed separately
Assay: Percentage aggregation of ADCs by size exclusion chromatography
Assay type: physicochemical
Conditions: Table 21 ADCs, conjugation Method A, E or G, 3 mg scale
Method: The DAR and percentage aggregation of ADCs synthesized were determined by LC-MS and size exclusion chromatography (SEC), respectively.
Size exclusion chromatography general methodology Size exclusion chromatography was performed using a Shodex KW802.5 column in 0.2 M potassium phosphate pH 6.2 with 0.25 mM potassium chloride and 15% IPA at a flow rate of 0.75 ml/min. The peak area absorbance at 280 nm was determined for each of the high molecular weight and monomeric eluents by integration of the area under the curve. The % aggregate fraction of the conjugate sample was determined by dividing the peak area absorbance at 280 nm for the high molecular weight eluent by the sum of the peak area absorbances at 280 nM of the high molecular weight and monomeric eluents multiplied by 100%.

Row | Molecule | % agg by SEC [%]
3 | B1 | 15.6
4 | B2 | 15
5 | B3 | 3
6 | B4 | 20.2
7 | B5 | 3.3
8 | B6 | 8.9
9 | B7 | 10.4
10 | B8 | 16.2
11 | B9 | 14.8
12 | B10 | 11.3
13 | B11 | 20.1
14 | B12 | 10.4
15 | B13 | 10.7
16 | B14 | 19.9
17 | B15 | 11.9
18 | B16 | 20.7
19 | B17 | 3.9
20 | B18 | 2.8

Same assay, conditions: huAb3v2 variant ADCs with synthon CZ, conjugation Method A

Row | Molecule | % agg by SEC [%]
21 | B1 | 15.6
22 | B2 | 15

Test system: NCI-H146 xenograft
Assay: NCI-H146 small cell lung cancer xenograft model
Assay type: in vivo, mouse
Conditions: 6 mg/kg/IP/QD × 1 (Table 24)

Row | Molecule | TGImax (%)
23 | B4 | 76
24 | B9 | 65

Same assay, conditions: 6 mg/kg/IP/QDx1 (Table 23)

Row | Molecule | TGD (%) | TGImax (%)
25 | B1 | 122 | 92
26 | B2 | 130 | 93
27 | B6 | 89 | 86
28 | B12 | 130 | 92

Test system: NCI-H1650 xenograft
Assay: NCI-H1650 xenograft model
Assay type: in vivo, mouse
Conditions: NCI-H1650 xenograft (Table 27, first study), 10 mg/kg/day QD × 1/IP

Row | Molecule | TGD (%) | TGImax (%)
29 | B17 | 100 | 80
